According to PubChem BioAssay AID1963576 (National Center for Advancing Translational Sciences (NCATS), 2024):
Screen size: about 46,000 compounds; about 60 (0.1%) were called active. Roughly 3% stayed inconclusive and do not appear here. Calls follow the shape of the dose curve; as a rule, active = well fitted inhibition curve with a large enough effect; inconclusive = small, poorly fitted or top-dose-only effect; inactive = no such curve, though single readings can be large or run the other way. Some of the results follow.

Assay: Primary qHTS assay for Inhibitors of ovarian cancer metastasis using an organotypic tumor microenvironment (TME) model. Also: nearly all actives have a fitted effect of over 65% in size.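 As to Potency: count of GFP cancer cells still attached after washing and fixation.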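 As to activity change, negative = inhibition: plate controls were DMSO wells for no effect and tomatine positive control wells for full effect.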
Conditions: SKOV3ip1-GFP adhesion/invasion on 3D omental model, fluorescence; series mostly up to 45.8 µM; activity change, negative = inhibition: at the top concentration
Procedure, shortened: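 qHTS, 4-pt dose (0.36-46 umol/L); SKOV3ip1-GFP, 1,200 cells/well, no FBS; primary omental fibroblast/mesothelial co-culture 48 h pre-grown; 2 h RT + 16 h 37 C; PBS wash, 4% PFA; GFP count 488/509 nm.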
Potency is read from the fitted curve at half-maximal effect.

Row | Structure (SMILES) | outcome | activity change, negative = inhibition | Potency
1 | Cc1cccc(Cn2nnc(C(=O)Nc3cc(C)ccc3C)c2N)c1 | inactive |  | 
2 | COc1cccc(NC(=O)C2CCN(c3nc4ccccc4nc3C(F)(F)F)CC2)c1 |  | inactive: 44.3% | 
3 | O=C(NC1CC(=O)N(c2cccc(F)c2)C1)C(c1ccccc1)c1ccccc1 (stereo not given) |  | inactive: 3.94% | 
4 | CCc1cc2c(-c3ccccc3)cc(=O)oc2c2c1OCN(Cc1ccc(F)cc1)C2 |  | inactive: 1.06% | 
5 | COc1cc(OC)c(NC(=O)Nc2c(C)n(C)n(-c3ccccc3)c2=O)cc1Cl |  | inactive: 0.265% | 
6 | Cc1cc(C)c2sc(NC(=O)c3ccc(S(=O)(=O)N4CCOCC4)cc3)nc2c1 | inactive |  | 
7 | Cn1c(=O)n(C)c2cc(N3CCOCC3)c(NC(=O)c3c(F)cccc3F)cc21 |  | inactive: 3.4% | 
8 | COc1ccc(C(=O)NCC(c2ccc(N(C)C)cc2)N2CCc3ccccc32)cc1 (stereo not given) |  | inactive: 5.06% | 
9 | CCCN1CCN(c2cc3c(cc2F)c(=O)c(S(=O)(=O)c2ccc(Cl)cc2)cn3C)CC1 |  | inactive: -9.54% | 
10 | COC(=O)c1ccccc1NC(=O)c1ccc2c(=O)n3c(nc2c1)CCCCC3 |  | inactive: -12.9% | 
11 | CCOc1ccc(CNC(=O)C2Cc3ccccc3N2C(=O)CC)cc1 (stereo not given) |  | inactive: 6.91% | 
12 | CCC(Oc1ccccc1)C(=O)Nc1ccc(OCc2cc(=O)n3ccccc3n2)cc1 (stereo not given) |  | inactive: 11% | 
13 | Cc1cn([C@@H]2C[C@@H](O)[C@H](CO)O2)c(=O)[nH]c1=O |  | inactive: -5.46% | 
14 | O=S(=O)(c1ccc(Cl)cc1)c1nc(-c2ccccc2)oc1N1CCN(c2ccccc2)CC1 | inactive |  | 
15 | O=C(Nc1ccc(Br)cc1)c1cccc(C(=O)Nc2ccc(Br)cc2)c1 | inactive |  | 
16 | COc1ccc(Nc2c3c(nc4ccc(NC(=O)/C=C/c5cccc(OC)c5OC)cc24)CCCC3)cc1OC |  |  | active: 5.01 µM
17 | CCOC(=O)c1cc(NC(=O)c2ccc(Cl)cc2)c(=O)n2c1oc1ccccc12 |  | inactive: -29.9% | 
18 | O=C(CN1C=NS(=O)(=O)c2ccc(C(F)(F)F)cc21)Nc1cccc(C(F)(F)F)c1 | inactive |  | 
19 | CO[C@H]1C=CO[C@@]2(C)Oc3c(C)c(O)c4c(O)c(c5c(c4c3C2=O)NC2(CCN(CC(C)C)CC2)N=5)=NC(=O)C(C)=CC=C[C@H](C)[C@H](O)[C@@H](C)[C@@H](O)[C@@H](C)[C@H](OC(C)=O)[C@H]1C |  | inactive: 7.93% | 
20 | Cc1ccc(CN(Cc2cccn2-c2nnc(N3CCCC3=O)s2)C(=O)Nc2ccccc2C(F)(F)F)cc1 |  | inactive: -2.57% | 
21 | Cc1ccc(CNC(=O)Cn2c(=O)n(Cc3ccccc3)c(=O)c3sc4ccccc4c32)cc1 |  | inactive: 32.3% | 
22 | CCc1nc(SCc2cc(=O)c3cc(C)ccc3[nH]2)n[nH]1 |  | inactive: 2.26% | 
23 | CCc1cccc(NC(=O)CSc2nc3ccsc3c(=O)n2CC)c1 |  | inactive: -14.1% | 

Row | Structure (SMILES) | outcome | activity change, negative = inhibition | Potency
24 | CCn1c(/C(C#N)=C/c2ccccc2Cl)nc2ccccc21 |  | inactive: -21.8% | 
25 | COc1ccccc1N1CCN(C(=O)CN2C(=O)COc3ccc(S(=O)(=O)N4CCCC4)cc32)CC1 |  | inactive: 21.7% | 
26 | CCOc1ccc(C2CC(=O)c3c([nH]c(C(=O)OC4CCC(C)CC4)c3C)C2)cc1 (stereo not given) |  | inactive: 24.7% | 
27 | COCCn1c(SCC(=O)c2ccc(C)cc2C)nc2cc(C(=O)NC3CCCC3)ccc2c1=O | inactive |  | 
28 | Cn1nnc2c(N3CCN(c4ccccc4)CC3)ncnc21 |  | inactive: 8.31% | 
29 | Cc1cc2ccccc2n1CCNC(=O)c1cc(C(F)(F)F)cc(C(F)(F)F)c1 |  | inactive: 2.12% | 
30 | Cc1ccccc1OC(=O)CSc1nnc(-c2ccc3c(c2)OCO3)o1 |  | inactive: 24.9% | 
31 | Cc1ccc(Cl)cc1N1CCN(C(=O)C2CCN(S(=O)(=O)c3cccc4nonc34)CC2)CC1 | inactive |  | 
32 | CN1CCN(C(=O)Cn2c(-c3cccs3)cc3cc(Cl)ccc32)CC1 |  | inactive: -9.43% | 
33 | Cc1ccc(C(=O)Nc2ccc(S(=O)(=O)O)c3cc(S(=O)(=O)O)cc(S(=O)(=O)O)c23)cc1NC(=O)c1cccc(NC(=O)Nc2cccc(C(=O)Nc3cc(C(=O)Nc4ccc(S(=O)(=O)O)c5cc(S(=O)(=O)O)cc(S(=O)(=O)O)c45)ccc3C)c2)c1 |  | inactive: -8.86% | 
34 | COC(=O)c1cc(NC(=O)c2nn(C)c3c2CSc2ccccc2-3)cc(C(=O)OC)c1 |  | inactive: -3.88% | 
35 | COc1ccccc1CNc1nc2ccc(Cl)cc2n2cnnc12 | inactive |  | 
36 | CC(C)c1ccc(NC(=O)c2cc(S(=O)(=O)N3CCCCC3)cn2C)cc1 | inactive |  | 
37 | CC(=O)c1c(C)oc2c(Br)cc(NS(=O)(=O)c3ccc(Br)cc3)cc12 | inactive |  | 
38 | CC(C)COc1ccc(C2=NC(c3ccncc3)=Nc3ccc(F)cc3N2)cc1 |  | inactive: -16% | 
39 | CCOc1ccc(N(CC)S(=O)(=O)N2CCCC(C(=O)Nc3cc(Cl)ccc3C)C2)cc1 (stereo not given) |  | inactive: -3.5% | 
40 | Cc1ccc(-c2n[nH]c3c2C(c2cccc(O)c2)N(c2ccc(C(=O)O)cc2)C3=O)cc1 (stereo not given) | inactive |  | 
41 | CCOc1ccc(-c2cc3c(=O)n(Cc4nc(-c5ccc(OC(C)C)cc5)oc4C)ccn3n2)cc1Cl | inactive |  | 
42 | CC(C)(C)c1ccc(C(=O)N2CCC(c3nc(-c4ccc(S(=O)(=O)N5CCCC5)cc4)no3)CC2)cc1 |  | inactive: -2.72% | 
43 | CCN(CC)CCNC(=O)c1ccc(CSc2nc3ccncc3n2Cc2cccc(F)c2)cc1 |  | inactive: -6.25% | 
44 | CCCN(CCC)S(=O)(=O)c1ccc2c(c1)N(CC(=O)NCc1ccc(F)cc1Cl)C(=O)CS2 |  | inactive: -22.9% | 
45 | O=C(CCCn1c(=O)c2ccccc2n(CC(=O)Nc2cccc(C(F)(F)F)c2)c1=O)NCc1ccc2c(c1)OCO2 |  | inactive: -22.3% | 
46 | Cc1ccccc1-c1nc(CN2CCC(C(=O)NCCc3ccccc3)CC2)c(C)o1 |  | inactive: -27.5% | 

Row | Structure (SMILES) | outcome | activity change, negative = inhibition | Potency
47 | COc1cc(C2SC[C@H]3C(=O)N(c4ccccc4)C(=O)N23)cc(OC)c1OC (stereo not given in full) | inactive |  | 
48 | COc1ccc(CNC(=O)C2CCCN(C(=O)N3CCOc4ccccc43)C2)cc1 (stereo not given) |  | inactive: 6.28% | 
49 | O=C(Cn1nc(N2CCN(c3ccccc3)CC2)ccc1=O)Nc1ccc(F)cc1F |  | inactive: -9.36% | 
50 | Cc1ccc(S(=O)(=O)c2nnn3c2nc(NC(C)c2ccccc2)c2sccc23)cc1 (stereo not given) |  | inactive: 0.987% | 
51 | CCCc1cc(=O)[nH]c2nnc(SCC(=O)Nc3ccc(OC)cc3)n12 | inactive |  | 
52 | O=C(COCc1cc(-c2ccc(F)cc2)on1)Nc1cccc(Cl)c1Cl |  | inactive: -2.18% | 
53 | O=C(Nc1ccccc1C(=O)OCc1cc(=O)n2ccsc2n1)c1ccc(Cl)cc1 |  | inactive: -6.5% | 
54 | O=C(NCc1cccn1Cc1ccccc1)Nc1ccc(Br)cc1F |  | inactive: -0.887% | 
55 | COc1cccc(N2CCN(c3ncnc4c3c(-c3ccccc3)cn4-c3ccc(C)cc3)CC2)c1 | inactive |  | 
56 | CCOC(=O)c1c(C)[nH]c(C)c1S(=O)(=O)NCC(=O)NCc1ccc(C)cc1 |  | inactive: 4.1% | 
57 | CCN(CC)S(=O)(=O)c1ccc2c(c1)nc(CN(C)C(=O)Nc1ccc(Cl)cc1)n2C | inactive |  | 
58 | COc1ccccc1CNC(=O)CCNS(=O)(=O)c1ccc2c(c1)CCCC(=O)N2 | inactive |  | 
59 | Cc1ccc(Cl)cc1NC(=O)Nc1nnc(N2CCCC(C)C2)s1 (stereo not given) |  | inactive: 5.58% | 
60 | CCOc1ccc(N2CC(NC(=O)c3ccc(S(=O)(=O)N4CCCC4)cc3)CC2=O)cc1 (stereo not given) |  | inactive: 7.71% | 
61 | CCOC(=O)c1c(C)c(-c2ccccc2)n(CC(=O)NCc2cccc(OC)c2)c1C | inactive |  | 
62 | O=C(NCc1cccn1Cc1ccccc1)Nc1cccc(C(F)(F)F)c1 |  | inactive: 0.887% | 
63 | Cc1ccc([N+](=O)[O-])cc1S(=O)(=O)N1CCn2cccc2C1c1ccccc1F (stereo not given) |  | inactive: -2.09% | 
64 | Cn1c(=O)oc2cc(S(=O)(=O)N3CCC(C(=O)NCc4ccccc4)CC3)ccc21 |  | inactive: -18.2% | 
65 | Cc1ccc(-n2nc3c(=O)n(CCCC(=O)NCc4ccccc4C)nc(C)c3c2C)cc1 |  | inactive: 7.42% | 
66 | COCCNC(=O)c1c(-c2ccccc2)c(-c2ccccc2)nn(C)c1=O |  | inactive: -14.1% | 
67 | Cc1ccc(NC(=O)CNC(=O)Cn2c(C)cc3ccccc3c2=O)cc1F |  | inactive: 9.8% | 
68 | CN(Cc1ccc(F)cc1)S(=O)(=O)c1nnc(NC(=O)c2ccccc2Br)s1 |  | inactive: -4.83% | 
69 | O=C(Cn1c(=O)n(Cc2ccc(Cl)cc2)c(=O)c2cccnc21)Nc1ccccc1C(F)(F)F |  | inactive: -16.6% | 

Row | Structure (SMILES) | outcome | activity change, negative = inhibition | Potency
70 | CCOc1cc(CNC(=O)c2ccc(Cn3c(=O)c4cccn4c4cccnc43)cc2)ccc1OC |  | inactive: 5.68% | 
71 | CCOC(=O)c1cnc2cc(C(F)(F)F)ccc2c1N1CCN(c2cccc(Cl)c2)CC1 | inactive |  | 
72 | Cc1ccc(NC(=O)CSc2nc3ccc(NC(=O)c4cccs4)cc3s2)cc1 |  | inactive: -10.4% | 
73 | CCC(Sc1nnc(C)n2c1cc1sccc12)C(=O)Nc1ccccc1F (stereo not given) |  | inactive: -7.7% | 
74 | CCOC(=O)c1c(SCC(=O)Nc2nc3ccccc3s2)nc(=O)[nH]c1C |  | inactive: 5.5% | 
75 | CCCCC(=O)Oc1ccc2oc(-c3ccc(OC)cc3)cc(=O)c2c1 |  | inactive: -1.07% | 
76 | Cc1ccc(F)cc1NC(=O)CCc1c(C)nn(-c2ccc(N3CCCC3)nn2)c1C |  | inactive: 20.1% | 
77 | CCc1cc(C(N)=S)ccn1 |  | inactive: 4.63% | 
78 | CC(=O)c1ccc(NC(=O)Cn2cnc3nc4c(cc3c2=O)CC(C)CC4)cc1 (stereo not given) |  | inactive: 4.83% | 
79 | CCOc1cccc(C2c3[nH]c4ccccc4c3CCN2C(=O)c2ccccc2F)c1 (stereo not given) |  | inactive: 0.43% | 
80 | CCOc1ccccc1C(=O)Nc1ccc(S(=O)(=O)Nc2onc(C)c2C)cc1 |  | inactive: -19.1% | 
81 | CCC1CN(C(=O)NCc2ccc(C)cc2)c2cc(Cl)ccc2O1 (stereo not given) | inactive |  | 
82 | COc1ccc(NC(=O)Cn2cnc3sc(C)c(S(=O)(=O)N4CCN(c5ccccc5OC)CC4)c3c2=O)cc1OC |  | inactive: -12.4% | 
83 | COc1ccc(S(=O)(=O)n2nc(-c3ccco3)nc2NCc2ccc(N(C)C)cc2)cc1 |  | inactive: 9.84% | 
84 | COc1ccc(S(=O)(=O)c2cn(CC(=O)Nc3cc(C)ccc3C)c3ccccc3c2=O)cc1 |  | inactive: 9.62% | 
85 | Cc1ccc(CNC(=O)N2CCC(CN3CCC(C)CC3)CC2)cc1 |  | inactive: -6.29% | 
86 | CCN1CCN(Cc2nc3cc(NC(=O)c4cc(OC)c(OC)c(OC)c4)ccc3n2CC)CC1 |  | inactive: 13.6% | 
87 | COc1cc(OC)cc(-c2nc3nc(C)c(CCC(=O)Nc4ccc(C)c(C)c4)c(C)n3n2)c1 |  | inactive: 15.4% | 
88 | Cc1ccc(C)c(N2CCN(C(=O)Cn3ncc4c(=O)oc5ccccc5c43)CC2)c1 |  | inactive: 14.2% | 
89 | Cc1ccc2scc(N3CCc4ccccc4C3)c(=O)c2c1 |  | inactive: 2.28% | 
90 | CC(C)c1ccc(NC(=O)CN2C(=O)COc3ccc(S(=O)(=O)N4CCCCC4)cc32)cc1 |  | inactive: -13.7% | 
